Measured values: US20190359693A1

B1: FM1W7 (Fc fusion)
chain: EVQLVESGGGLVQPGGSLRLSCAASGRTLSIYSMGWFRQAPGKEREFVATIGWNSGRTFYPDSVKGRFTISRDNSKNTLYLQMNSLRAEDTAVYYCAAAKGPLRLSSQADYWGQGTLVTVSSGGGGSGGGGSQVQLVESGGGVVQPGGSLRLSCAASISIFDIYAMDWYRQAPGKQRELVAVSFRDGSTYYADSVKGRFTISRDNSKNTLYLQMNSLRAEDTAVYYCHVSLYRDPLGVAGGIGVYWGQGTLVTVSSGGGGSGGGGSEVQLVESGGGLVQPGGSLRLSCAASGFTFSTSWMYWLRQAPGKGLEWVSVINTDGGTYYADSVKGRFTISRDNSKNTLYLQMNSLRAEDTAVYYCAKDWGGPEPTRGQGTLVTVSSGGGGSGGGGSEVQLLESGGGLVQPGGSLRLSCAASGFTLENKAIGWFRQAPGKEREGVLCISKSGSWTYYADSVKGRFTISRDNSKNTVYLQMNSLRPEDTAVYYCATTTAGGGLCWDGTTFSRLASSWGQGTLVTVSS[gap - human IgG1 Fc]
B2: FM1W8 (Fc fusion)
chain: QVQLVESGGGVVQPGGSLRLSCAASISIFDIYAMDWYRQAPGKQRELVAVSFRDGSTYYADSVKGRFTISRDNSKNTLYLQMNSLRAEDTAVYYCHVSLYRDPLGVAGGIGVYWGQGTLVTVSSGGGGSGGGGSEVQLVESGGGLVQPGGSLRLSCAASGRTLSIYSMGWFRQAPGKEREFVATIGWNSGRTFYPDSVKGRFTISRDNSKNTLYLQMNSLRAEDTAVYYCAAAKGPLRLSSQADYWGQGTLVTVSSGGGGSGGGGSEVQLVESGGGLVQPGGSLRLSCAISGLSLDTYAVGWFRQAPGKEREGVSCISSGHGMTYYADSVKGRFTISTDNSKNTVYLQMNSLRAEDTAVYYCATESRYYCSDNWPAPQRYIYWGQGTLVTVSSGGGGSGGGGSEVQLVESGGGLVQPGGSLRLSCAASGFTFSTSWMYWLRQAPGKGLEWVSVINTDGGTYYADSVKGRFTISRDNSKNTLYLQMNSLRAEDTAVYYCAKDWGGPEPTRGQGTLVTVSS[gap - human IgG1 Fc]
B3: FM1B67.1 (Fc fusion)
chain 1: EVQLVESGGGLVQPGGSLRLSCAISGLSLDTYAVGWFRQAPGKEREGVSCISSGHGMTYYADSVKGRFTISTDNSKNTVYLQMNSLRAEDTAVYYCATESRYYCSDNWPAPQRYIYWGQGTLVTVSSGGGGSGGGGSEVQLVESGGGLVQPGGSLRLSCAASGFTFSTSWMYWLRQAPGKGLEWVSVINTDGGTYYADSVKGRFTISRDNSKNTLYLQMNSLRAEDTAVYYCAKDWGGPEPTRGQGTLVTVSSGGGGSGGGGSQVQLVESGGGVVQPGGSLRLSCAASISIFDIYAMDWYRQAPGKQRELVAVSFRDGSTYYADSVKGRFTISRDNSKNTLYLQMNSLRAEDTAVYYCHVSLYRDPLGVAGGIGVYWGQGTLVTVSSGGGGSGGGGSEVQLVESGGGLVQPGGSLRLSCAASGRTLSIYSMGWFRQAPGKEREFVATIGWNSGRTFYPDSVKGRFTISRDNSKNTLYLQMNSLRAEDTAVYYCAAAKGPLRLSSQADYWGQGTLVTVSS[gap - human IgG1 Fc]
chain 2: QVQLVESGGGVVQPGGSLRLSCAASISIFDIYAMDWYRQAPGKQRELVAVSFRDGSTYYADSVKGRFTISRDNSKNTLYLQMNSLRAEDTAVYYCHVSLYRDPLGVAGGIGVYWGQGTLVTVSSGGGGSGGGGSEVQLLESGGGLVQPGGSLRLSCAASGRTYAMGWFRQAPGKEREFVAAINALGTRTYYADSVKGRFTISRDNSKNTLYLQMNSLRAEDTAVYYCTAQGQWRAAPVAVAAEYEFWGQGTLVTVSS[gap - human IgG1 Fc with K409R (EU numbers)]

These binders were tested against hemagglutinin (HA) of influenza A/Brisbane/10/07 (H3N2) (influenza A virus A/Brisbane/10/07 (H3N2)) (assay: cell-based or functional assay).
For B1, the Average neutralization titers was 10 nM. Binder B2 has an Average neutralization titers of 40 nM. Work on B3 yielded an Average neutralization titers of 16 nM.

What follows are binders tested against hemagglutinin (HA) of influenza A/New Caledonia/20/99 (H1N1) (influenza A virus A/New Caledonia/20/99 (H1N1)) (assay: cell-based or functional assay).
With B1 the Average neutralization titers was 5 nM. In the case of B2, the Average neutralization titers is reported as 40 nM. B3 gave an Average neutralization titers of 6 nM.

Each binder was assayed against hemagglutinin (HA) of influenza A/Vietnam/1194/04 (H5N1) (influenza A virus A/Vietnam/1194/04 (H5N1)) (assay: cell-based or functional assay).
B1 was tested, and the Average neutralization titers was 13 nM. For B2, the Average neutralization titers was 40 nM. B3 showed an Average neutralization titers of 16 nM.

What follows are binders tested against hemagglutinin (HA) of influenza B/Brisbane/60/08 (Victoria lineage) (influenza B virus B/Brisbane/60/08) (assay: cell-based or functional assay).
For B1, the Average neutralization titers was 16 nM. Work on B2 yielded an Average neutralization titers of 4 nM. For B3, the Average neutralization titers was 4 nM.

The binders below were run against hemagglutinin (HA) of influenza B/Harbin/7/94 (Yamagata lineage) (influenza B virus B/Harbin/7/94) (assay: cell-based or functional assay).
For B1, the Average neutralization titers was 6 nM. B2 showed an Average neutralization titers of 3 nM. For B3, the Average neutralization titers was 6 nM.
